According to article PMC5700166:
The entries are a selection whose mix differs from that of the whole data set. The list includes weakly bound sequences.

Tests used:
Assay in all cases: protein-binding microarray (PBM)
Details in all cases: PBM: ~300 nM protein, 6 mM HEPES pH 7.8, 80 mM KCl, 0.5 mM EDTA, 0.5 mM EGTA, 6% glycerol, 35 ng/ul poly-dIdC, 1% milk, 1 h, room temperature; Ap Aiptasia and Nv Nematostella (sea anemones) / Co Capsaspora / Aq Amphimedon (sponge) / Dm Drosophila / Hu human; RHD is the Rel homology domain; high values mean tight binding; most listed sequences are background and not binding sites; double strand, one strand shown
[1] = target: T1, GST-Ap-NF-kB RHD (UniProt A0A913YAJ5)
T1 sequence: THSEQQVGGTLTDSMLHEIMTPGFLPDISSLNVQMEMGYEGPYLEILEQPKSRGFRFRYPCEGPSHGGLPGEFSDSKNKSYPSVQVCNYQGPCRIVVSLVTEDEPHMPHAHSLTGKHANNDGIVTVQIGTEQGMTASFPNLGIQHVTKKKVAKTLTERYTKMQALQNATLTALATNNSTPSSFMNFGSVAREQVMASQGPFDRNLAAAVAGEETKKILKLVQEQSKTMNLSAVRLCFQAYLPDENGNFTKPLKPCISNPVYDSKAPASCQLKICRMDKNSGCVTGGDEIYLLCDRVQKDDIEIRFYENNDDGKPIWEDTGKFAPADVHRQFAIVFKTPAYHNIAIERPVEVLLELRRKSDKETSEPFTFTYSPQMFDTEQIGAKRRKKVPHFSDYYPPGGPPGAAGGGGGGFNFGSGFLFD

[2] = target: T2, GST-Nv-NF-kB (Cys allele) (UniProt E5G601)
T2 sequence: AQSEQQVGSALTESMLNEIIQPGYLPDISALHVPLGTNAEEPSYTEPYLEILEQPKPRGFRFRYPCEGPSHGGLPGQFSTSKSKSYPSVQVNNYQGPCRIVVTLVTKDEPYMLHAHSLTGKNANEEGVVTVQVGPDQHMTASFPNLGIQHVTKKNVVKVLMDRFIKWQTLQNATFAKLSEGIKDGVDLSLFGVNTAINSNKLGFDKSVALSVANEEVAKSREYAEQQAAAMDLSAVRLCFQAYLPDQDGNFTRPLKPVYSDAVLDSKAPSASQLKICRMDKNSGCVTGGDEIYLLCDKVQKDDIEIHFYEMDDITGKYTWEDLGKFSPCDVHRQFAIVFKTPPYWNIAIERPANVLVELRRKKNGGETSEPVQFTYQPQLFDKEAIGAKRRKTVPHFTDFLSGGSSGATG

[3] = target: T3, GST-Dm-Relish (UniProt Q94527)
T3 sequence: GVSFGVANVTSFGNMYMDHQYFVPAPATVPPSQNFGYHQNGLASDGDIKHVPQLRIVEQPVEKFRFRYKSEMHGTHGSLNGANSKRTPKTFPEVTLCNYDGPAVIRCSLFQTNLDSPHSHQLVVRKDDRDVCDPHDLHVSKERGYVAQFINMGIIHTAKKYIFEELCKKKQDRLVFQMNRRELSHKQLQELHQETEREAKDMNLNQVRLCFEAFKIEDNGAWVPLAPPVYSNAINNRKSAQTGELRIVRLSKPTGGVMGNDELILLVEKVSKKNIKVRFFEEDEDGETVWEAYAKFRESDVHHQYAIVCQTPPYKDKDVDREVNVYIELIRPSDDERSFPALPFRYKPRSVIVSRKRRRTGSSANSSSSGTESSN

[4] = target: T4, GST-Co-NF-kB (UniProt F1ARL5)
T4 sequence: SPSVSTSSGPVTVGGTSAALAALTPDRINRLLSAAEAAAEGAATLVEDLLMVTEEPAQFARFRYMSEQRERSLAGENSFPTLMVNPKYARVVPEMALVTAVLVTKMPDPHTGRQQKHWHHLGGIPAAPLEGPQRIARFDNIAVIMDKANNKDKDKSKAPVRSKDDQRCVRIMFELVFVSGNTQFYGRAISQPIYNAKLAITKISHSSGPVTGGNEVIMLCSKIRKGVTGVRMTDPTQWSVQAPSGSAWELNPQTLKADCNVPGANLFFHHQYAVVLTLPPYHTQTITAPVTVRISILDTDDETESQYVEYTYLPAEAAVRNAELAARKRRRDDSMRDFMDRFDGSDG

Row | Sequence | binding signal [1] | binding signal [2] | binding signal [3] | binding signal [4]
1 | CCGATTAACATCACGGGGAATTCTGATGTTAATCGGGTCTTGATTCGCTTGACGCTGCTG | 9.62 z-score | 10.1 z-score | 8.15 z-score | –
2 | CCGATTAACATCACTCTTTTCCCTGATGTTAATCGGGTCTTGATTCGCTTGACGCTGCTG | 2.32 z-score | 3.09 z-score | 0.511 z-score | –
3 | CCGATTAACATCAGGGGAGTGTATGATGTTAATCGGGTCTTGATTCGCTTGACGCTGCTG | 3.6 z-score | 3.38 z-score | 0.608 z-score | –
4 | CCGATTAACATCACGGGATTACCTGATGTTAATCGGGTCTTGATTCGCTTGACGCTGCTG | 3.75 z-score | – | – | 0.793 z-score
5 | CCGATTAACATCAATTCTCCCCCTGATGTTAATCGGGTCTTGATTCGCTTGACGCTGCTG | 6.48 z-score | – | – | 10.7 z-score
6 | CCGATTAACATCAGAAATCCCGATGATGTTAATCGGGTCTTGATTCGCTTGACGCTGCTG | 3.14 z-score | – | – | 0.936 z-score
7 | CCGATTAACATCAAAATTTGCCCTGATGTTAATCGGGTCTTGATTCGCTTGACGCTGCTG | 0.557 z-score | 0.695 z-score | 0.993 z-score | –
8 | CCGATTAACATCAATTCCCAACATGATGTTAATCGGGTCTTGATTCGCTTGACGCTGCTG | 0.695 z-score | 2.32 z-score | 0.817 z-score | –
9 | CCGATTAACATCACCAAATTCCCTGATGTTAATCGGGTCTTGATTCGCTTGACGCTGCTG | 4.1 z-score | 4.67 z-score | 4.02 z-score | –
10 | CCGATTAACATCAGGGGGTTCCATGATGTTAATCGGGTCTTGATTCGCTTGACGCTGCTG | 7.79 z-score | 5.3 z-score | 9.47 z-score | –
11 | CCGATTAACATCAGGAAATCACCTGATGTTAATCGGGTCTTGATTCGCTTGACGCTGCTG | 2.81 z-score | – | – | -0.0313 z-score
12 | CCGATTAACATCAGGGGTACACATGATGTTAATCGGGTCTTGATTCGCTTGACGCTGCTG | 1.77 z-score | 0.248 z-score | 1.13 z-score | –
